For 56 variants, self-cleavage results are on record in the RNAGym collection of RNA variant scans (doi:10.7554/elife.90254).

The source gives no read counts; variants with many changes may rest on few reads.

B1: LINE1-mini (parent)
chain: GGCAGAGCUCAACACAGCGUGGCAAAGUGGCUGUGGCUAGACUGCC

The variants in this series derive from B1. Nature of the series: self-cleavage, relative activity (ratio to wild type); higher = more cleavage; in vitro, sequencing; the parent is a self-cleaving ribozyme.
In the case of GGCAGAGCUCAACACAGCGUGGUAAAGUCGCUGUUGCUAGACUGGC [C23U G29C G35U C45G], the self-cleavage came to 0.04.

On to GGCAGAGCUCAACACAGCGUGGUAAAUUGGCUGUGGCUAGACCGCC [C23U G27U U43C], for which the self-cleavage was determined as 0.16.

On to GGCAGAGCUCAACACAGCGUGGUAAAGUGGCUCUGGCUAGGCUGCC [C23U G33C A41G], for which the self-cleavage was 0.04.

As for GGCAGAGCUCAACACAGCGUGGUAAAGUUGCUGUGGUUAAACUACC [C23U G29U C37U G40A G44A], the self-cleavage was 0.03.

Turning to GGCAGAGCUCAACACAGCGUGGUAAAUUGGCCGUGGCUAGACUGCC [C23U G27U U32C], the self-cleavage turned out to be 0.31.

For the variant GGCAGAGCUCAACACAGCGUGGCCAAGUGGCUGUAGCUAAACUGCC [A24C G35A G40A], the self-cleavage amounted to 0.04.

GGCAGAGCUCAACACAGCGUGGCCAGGUGGCUGUGGCUAGACUACC [A24C A26G G44A]: the self-cleavage was determined as 0.

GGCAGAGCUCAACACAGCGUGGUAAAGUGGCUAUUUCUAGCCUUAC [C23U G33A G35U G36U A41C G44U C45A]: the self-cleavage is 0.01.

With GGCAGAGCUCAACACAGCGUGGCCAAGUCGAUGAGGCUAGACUGCC [A24C G29C C31A U34A], the self-cleavage came to 0.08.

GGCAGAGCUCAACACAGCGUGGCGGAGUGGCUGGGGUUAGACUGCC [A24G A25G U34G C37U]: the self-cleavage turned out to be 0.02.

GGCAGAGCUCAACACAGCGUGGCCUAGAGAAUGUGGCUAGACUGCC [A24C A25U U28A G30A C31A]: the self-cleavage was determined as 0.04.

Turning to GGCAGAGCUCAACACAGCGUGGUAAAGUGGUUGUGCCUCAACUACC [C23U C31U G36C A39C G40A G44A], the self-cleavage worked out at 0.03.

Turning to GGCAGAGCUCAACACAGCGUGGUAAAGUGGGUGUGGCUAGACCGCC [C23U C31G U43C], the self-cleavage is 0.03.

As to GGCAGAGCUCAACACAGCGUGGCCAAAUGGGUGUGGCUAGAUUGCC [A24C G27A C31G C42U], the self-cleavage was 0.05.

In the case of GGCAGAGCUCAACACAGCGUGGUAAAGUGGCUCUGGCUAGACUGUC [C23U G33C C45U], the self-cleavage came out at 0.03.

For GGCAGAGCUCAACACAGCGUGGUAAAGUGGCUGUGGGUAGACCGCC [C23U C37G U43C], the self-cleavage amounted to 0.83.

Turning to GGCAGAGCUCAACACAGCGUGGUAACGUGGCUGUGGCUACACUCCC [C23U A26C G40C G44C], the self-cleavage is 0.08.

With GGCAGAGCUCAACACAGCGUGGCCAAGUGGCUGGGGCUAGACAGCC [A24C U34G U43A], the self-cleavage stood at 0.03.

As for GGCAGAGCUCAACACAGCGUGGCCAAGUGACUGUGGUUAGACUGCC [A24C G30A C37U], the self-cleavage was 0.12.

GGCAGAGCUCAACACAGCGUGGUAAAGUGGCUGUGGCAAGAAUGCC [C23U U38A C42A]: the self-cleavage is 0.22.

On to GGCAGAGCUCAACACAGCGUGGCCAAGUGACUGUUGCUAGACUGCC [A24C G30A G35U], for which the self-cleavage worked out at 0.15.

On to GGCAGAGCUCAACACAGCGUGGCGUAGUGGUUGAGGCUAGACUGCC [A24G A25U C31U U34A], for which the self-cleavage worked out at 0.03.

For GGCAGAGCUCAACACAGCGUGGCCAAGUGGCUGUGGCUAGUCAGCC [A24C A41U U43A], the self-cleavage is 0.07.

Regarding GGCAGAGCUCAACACAGCGUGGUAAAUUGGCUGUGGCUAGACUACC [C23U G27U G44A], the self-cleavage amounted to 0.15.

In the case of GGCAGAGCUCAACACAGCGUGGCCAAUUGGCUGUGGCUAGACCGCC [A24C G27U U43C], the self-cleavage was found to be 0.09.

Regarding GGCAGAGCUCAACACAGCGUGGUAAAGUGGCAGUGGCUAAACUGCC [C23U U32A G40A], the self-cleavage was 0.06.

For the variant GGCAGAGCUCAACACAGCGUGGUAAGGUGGCUGUGGCCAGACUUCC [C23U A26G U38C G44U], the self-cleavage turned out to be 0.07.

Take GGCAGAGCUCAACACAGCGUGGUAAAGUGGAUGUGACUAGACUGCC [C23U C31A G36A]: the self-cleavage was 0.12.

As to GGCAGAGCUCAACACAGCGUGGUAAAGUGGCUGUAUUUAGACUGCC [C23U G35A G36U C37U], the self-cleavage was 0.03.

For the variant GGCAGAGCUCAACACAGCGUGGCCAAGUGGCUCUGGUCAGACUGCC [A24C G33C C37U U38C], the self-cleavage turned out to be 0.07.

Turning to GGCAGAGCUCAACACAGCGUGGUAAAGUGGCUUUGGCUAUACUGCC [C23U G33U G40U], the self-cleavage stood at 0.03.

Take GGCAGAGCUCAACACAGCGUGGUAAAGCGGCUGUGGCUAUACUGCC [C23U U28C G40U]: the self-cleavage amounted to 0.03.

Take GGCAGAGCUCAACACAGCGUGGCGAGGUGGCUGUGGAUAGCCUGCC [A24G A26G C37A A41C]: the self-cleavage was 0.02.

In the case of GGCAGAGCUCAACACAGCGUGGUAAAGUGGCUGUGGCUAUACAGCC [C23U G40U U43A], the self-cleavage turned out to be 0.05.

Turning to GGCAGAGCUCAACACAGCGUGGCGAGGUGGCUGUGGCUACAAUGCC [A24G A26G G40C C42A], the self-cleavage worked out at 0.04.

As to GGCAGAGCUCAACACAGCGUGGCCAAGUGACUGUGGCUGGACUGCC [A24C G30A A39G], the self-cleavage was 0.1.

For the variant GGCAGAGCUCAACACAGCGUGGUAAAAUGGCUGAGGCUAGACUGCC [C23U G27A U34A], the self-cleavage turned out to be 0.16.

With GGCAGAGCUCAACACAGCGUGGCCAAGUUGCUGUGUCUAGACUGCC [A24C G29U G36U], the self-cleavage amounted to 0.03.

For GGCAGAGCUCAACACAGCGUGGUAAAGUAGCUGUGGCUAGACUGCA [C23U G29A C46A], the self-cleavage came out at 0.28.

As for GGCAGAGCUCAACACAGCGUGGUAAAGUGUCUGUGGCUAGAAUGCC [C23U G30U C42A], the self-cleavage was 0.08.

Turning to GGCAGAGCUCAACACAGCGUGGCCAAGUGGCAGUGGCUAGACUGCA [A24C U32A C46A], the self-cleavage was determined as 0.06.

Take GGCAGAGCUCAACACAGCGUGGCCAAGUUGCUGUGGCUAAACCGCC [A24C G29U G40A U43C]: the self-cleavage is 0.05.

In the case of GGCAGAGCUCAACACAGCGUGGCCAAGUGGCUGUGGAUAGACUGUC [A24C C37A C45U], the self-cleavage is 0.13.

GGCAGAGCUCAACACAGCGUGGCCCAUUGGCUGUGGCUAGACUGCC [A24C A25C G27U]: the self-cleavage amounted to 0.17.

As for GGCAGAGCUCAACACAGCGUGGCCAAGUGGCUGUCGGUAGCCUGCC [A24C G35C C37G A41C], the self-cleavage turned out to be 0.01.

Consider GGCAGAGCUCAACACAGCGUGGCGAUGUCUCUCUGGCGAGACUGCC [A24G A26U G29C G30U G33C U38G], for which the self-cleavage was 0.01.

As to GGCAGAGCUCAACACAGCGUGGUAAAGAGGGUGUGGCUAGACUGAC [C23U U28A C31G C45A], the self-cleavage was determined as 0.06.

Take GGCAGAGCUCAACACAGCGUGGUAAAGUGGCUGGGUCUAGACUGCC [C23U U34G G36U]: the self-cleavage turned out to be 0.05.

With GGCAGAGCUCAACACAGCGUGGUAAAGUGUUCGUGGCUAGUCAGCC [C23U G30U C31U U32C A41U U43A], the self-cleavage was found to be 0.1.

With GGCAGAGCUCAACACAGCGUGGCGAUGUGGCUGUUGCUAGACUGCC [A24G A26U G35U], the self-cleavage turned out to be 0.08.

GGCAGAGCUCAACACAGCGUGGUAAAUUGGCUGUGGAUAGACUGCC [C23U G27U C37A]: the self-cleavage amounted to 0.03.

With GGCAGAGCUCAACACAGCGUGGCGACGUGGCUGUGGCUAGGCUGCC [A24G A26C A41G], the self-cleavage is 0.15.

Consider GGCAGAGCUCAACACAGCGUGGUAAAGUGUCUGUGGCCAGACUGCC [C23U G30U U38C], for which the self-cleavage was found to be 0.1.

For the variant GGCAGAGCUCAACACAGCGUGGUAAAGUGGCUGUGGCUAGACAGGC [C23U U43A C45G], the self-cleavage was found to be 0.04.

In the case of GGCAGAGCUCAACACAGCGUGGUAAAAUGGCUCUGGCUAGACUGCC [C23U G27A G33C], the self-cleavage is 0.11.

In the case of GGCAGAGCUCAACACAGCGUGGCCAAGUGGCUGUGGCAUUACUGCG [A24C U38A A39U G40U C46G], the self-cleavage stood at 0.02.
